Laboratory results from PubChem BioAssay AID924 (National Center for Advancing Translational Sciences (NCATS), 2007).
Several values for one entry are separate records, joined by “and”; a condition that tells them apart may be missing. Equal entries are not always repeated. Among all 130,000 compounds or so, about 1,200 (0.92%) were called active. The inconclusive results got no clear call from the source; some entries with a clear call stand among them for comparison. The call rests on the fitted dose curve; in most records, active means well fitted cell-killing curve with a large enough effect; inconclusive means small, poorly fitted or top-dose-only effect; inactive means no such curve, though single readings can be large or run the other way. A potency beside an inconclusive call is a rough fit, not a confirmed value.

Test: qHTS Screen for Compounds that Selectively Target Cancer Cells with p53 Mutations: Cytotoxicity of p53ts Cells at the Permissive Temperature; further: nearly all actives have a fitted effect of over 55% in size;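 on activity change, negative = cytotoxicity: 0% = DMSO and -100% = full killing by reference compound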
Conditions: H1299-p53A138V at 32C, ATP luminescence viability, 24 h; activity change, negative = cytotoxicity: at 46.1 µM (top of the series)
How it was run: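 H1299-p53 A138V cells (temperature-sensitive p53) exposed 24 h to up to 46 uM compound at 32C, where p53 is wild-type in conformation. Viability read as ATP luminescence and normalised to DMSO and 100 uM tamoxifen. AC50 fitted with the Hill equation.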
Potency means the concentration at half of the fitted maximal effect; tags describe the fitted curve by direction and shape.

Row | SMILES | Potency | activity change, negative = cytotoxicity
1 | CN(c1cccc(NC(=O)COc2ccccc2)c1)S(C)(=O)=O | inconclusive: 12.6 µM [cytotoxic, partial curve] | 
2 | COc1ccccc1C(=O)Nc1nc2nc(C)c(Cc3ccccc3)c(=O)n2[nH]1 |  | inactive: 10.8%
3 | Cc1nc(N2CCN(Cc3ccccc3)CC2)c(C#N)c2c1COC(C)(C)C2 | inconclusive: 14.1 µM [cytotoxic, partial curve] | 
4 | COc1ccc(-n2ncc3c(NCC(C)C)ncnc32)cc1 | inconclusive: 10 µM [cytotoxic, partial curve] | 
5 | Cc1ccc(-c2nc3cc(C)ccc3o2)cc1 | active: 10 µM | 
6 | COC(=O)c1ccc(NC(=O)Nc2ccc(F)cc2)cc1 |  | inactive: -6.66%
7 | CCCCCCCCNC(C)C(O)c1ccc(SC(C)C)cc1 (configuration not stated) | inconclusive: 25.1 µM [cytotoxic, single point] | 
8 | COc1ccccc1-c1cc(NCc2ccccc2)ncn1 | inconclusive: 10 µM [cytotoxic, partial curve] | 
9 | Cn1c(=O)n(Cc2ccc(F)cc2)c(=O)c2c1nc1n2CCCN1C1CCCCC1 |  | inactive: 2.88%
10 | O=C(Nc1ccccc1F)c1ccc(-c2ccccc2)s1 | inconclusive: 11.2 µM [cytotoxic, partial curve] | 
11 | CCOC(=O)c1nnn(CC(=O)NC(=O)Nc2cccc(CC)c2)c1C(=O)OCC |  | inactive: -8.24%
12 | Fc1ccc(Cc2cn3cc(-c4ccc(Cl)cc4)nc3s2)cc1 | inconclusive: 10 µM [cytotoxic, partial curve] | 
13 | COc1ccc(NC(=O)c2sc3nc4c(cc3c2N)CCCCCC4)cc1OC |  | inactive: -17%
14 | CCOC(=O)c1cnc2c(-c3ccccc3)cnn2c1N | active: 10 µM | 
15 | Cc1ccc(C(=O)Nc2ccc3c(c2)ncn3C)cc1 | inconclusive: 10 µM [cytotoxic, partial curve] | 
16 | CN(C)S(=O)(=O)c1cccc(C(=O)NCCc2ccccc2)c1 | inconclusive: 20 µM [cytotoxic, single point] | 
17 | CN(C)S(=O)(=O)c1ccc(N2CCN(S(=O)(=O)c3ccc(F)cc3)CC2)c(Cl)c1 | inconclusive: 12.6 µM [cytotoxic, partial curve] | 
18 | CCc1ccc(C2c3c(-c4cc(C)ccc4O)n[nH]c3C(=O)N2Cc2cccnc2)cc1 (configuration not stated) |  | inactive: -2.77%
19 | Cc1nn(CCC(=O)N2CCN(c3ccccc3)CC2)c(C)c1S(=O)(=O)N1CCCC1 |  | inactive: -2.07%
20 | CNC(=O)c1[nH]cnc1C(=O)Nc1cccc(OC)c1 |  | inactive: 3.06%
21 | CCn1c(C(=O)NCc2ccccc2Br)cc2oc3ccccc3c21 | inconclusive: 0.631 µM [cytotoxic, full curve, poor fit] | 
22 | COc1ccc(-c2cc(C(=O)OCC(=O)N(C)C)c3ccccc3n2)cc1 | inconclusive: 12.6 µM [cytotoxic, partial curve] | 
23 | CCCOc1cccc(C2c3c(-c4ccccc4O)n[nH]c3C(=O)N2Cc2ccco2)c1 (configuration not stated) | inconclusive: 31.6 µM [cytotoxic, single point] | 
24 | COC(=O)c1cccc(NC(=O)c2cccc(OC)c2)c1 | inconclusive: 12.6 µM [cytotoxic, single point] | 

Row | SMILES | Potency | activity change, negative = cytotoxicity
25 | c1ccc(-n2nnc3c(N4CCOCC4)ncnc32)cc1 | active: 12.6 µM | 
26 | Cc1cc(C)cc(Nc2cc(C(=O)NCCCN(C)C3CCCCC3)c3ccccc3n2)c1 | inconclusive: 20 µM [cytotoxic, single point] | 
27 | CNc1nc(-c2ccc(N(C)C)cc2)nc2ccccc12 | active: 12.6 µM | 
28 | Cc1cccc(CCn2c(=O)c3ccccc3n(CC(=O)Nc3ccccc3F)c2=O)c1 | inconclusive: 15.8 µM [cytotoxic, single point] | 
29 | Cc1ccc(C)c(N2CCN(CCCNC(=O)c3cnn(-c4ccccc4)c3C3CCN(C(=O)OC(C)(C)C)CC3)CC2)c1 | inconclusive: 31.6 µM [cytotoxic, single point] | 
30 | COc1cc(OC)cc(C(=O)Nc2ccc3nc4n(c(=O)c3c2)CCCCC4)c1 | inconclusive: 25.1 µM [cytotoxic, single point] | 
31 | Cc1ccc2nc(-c3cccc(S(=O)(=O)N(C)C)c3)cn2c1 | inconclusive: 12.6 µM [cytotoxic, single point] | 
32 | CC(=O)OCC1OC(C#Cc2ccc(Cl)cc2)C=CC1OC(C)=O (configuration not stated) |  | inactive: 5.82% [at 9.22 µM] and inactive: 1.53% [at 9.22 µM]
33 | Cc1nc2ccccc2c2oc(C(=O)NCC3COc4ccccc4O3)cc12 (configuration not stated) | inconclusive: 31.6 µM [cytotoxic, single point] | 
34 | COc1ccc(C(=O)C(CN2CCOCC2)c2ccccc2)cc1F (configuration not stated) | inconclusive: 31.6 µM [cytotoxic, single point] | 
35 | Cc1ccc(OCc2nc(-c3ccccn3)no2)c(Br)c1 | active: 10 µM | 
36 | CC(=O)N1CCC2(CCCN(C(c3ccccc3)c3ccccc3)C2)CC1 |  | inactive: 3.6%
37 | CCN(CC)S(=O)(=O)c1ccc2c(c1)c(=O)c(C(=O)NCc1ccccc1Cl)cn2C | inconclusive: 31.6 µM [cytotoxic, single point] | 
38 | O=C(CSc1c2c(nc3cc(Cl)ccc13)CCCC2)N1CCN(c2ccccc2)CC1 | inconclusive: 20 µM [cytotoxic, single point] | 
39 | O=C(c1cc(-c2ccc3c(c2)OCO3)on1)N1CCOCC1 | active: 7.94 µM | 
40 | CN(C)c1ccc(/C=c2\sc3n(c2=O)CCCN=3)cc1 | active: 12.6 µM | 
41 | O=C(Nc1nc2c(s1)C(=O)CCC2)c1ccccc1 | active: 12.6 µM | 
42 | Cc1ccc(Cc2cn3cc(-c4ccccc4)nc3s2)cc1 | inconclusive: 2.24 µM [cytotoxic, full curve] | 
43 | CN(C)C[C@@H](O)c1ccc(Cl)c2ccccc12 |  | inactive: 8.37% [at 9.22 µM]
44 | O=C(Nc1ccccc1C(=O)O)c1ccc(Cl)c(S(=O)(=O)N2CCOCC2)c1 | inconclusive: 12.6 µM [cytotoxic, partial curve] | 
45 | CCOC(=O)C(Cc1ccccc1)NC(=O)Cn1nnc(-c2ccccc2)n1 (configuration not stated) | inconclusive: 0.316 µM [cytotoxic, full curve] | 
46 | CCOC(=O)c1c(C)c(C(=O)N2CCN(C(=O)c3ccco3)CC2)c(C)n1C |  | inactive: -6.28%
47 | O=C(OCC(=O)N1CCCc2ccccc21)c1cnc(Cl)c(Cl)c1 | inconclusive: 35.5 µM [cytotoxic, single point] | 
48 | Cc1c(C(=O)N2CCc3ccccc3C2)sc2nc(-c3ccccc3)cn12 |  | inactive: -2.25%

Row | SMILES | Potency | activity change, negative = cytotoxicity
49 | Cn1c(CSc2ccccc2)c(C#N)c2ccccc21 |  | inactive: 8.11%
50 | c1ccc(CCc2ccccc2-c2nc(-c3cccnc3)no2)cc1 |  | inactive: 2.38%
51 | O=C(COc1ccc(Cl)cc1)Nc1ccc2nc(SCC(=O)N3CCOCC3)sc2c1 |  | inactive: -19.7%
52 | Cc1ccc(NC(=O)c2ccco2)cc1C | inconclusive: 10 µM [cytotoxic, partial curve] | 
53 | Cc1ccc(-c2nnc(SCC(=O)NC(C)(C)C)nc2-c2ccc(C)cc2)cc1 | inconclusive: 35.5 µM [cytotoxic, single point] | 
54 | Clc1ccc2[nH]c3c(NCC4CCCO4)ncnc3c2c1 (configuration not stated) |  | inactive: -6.2%
55 | CCN(CC)C(=O)c1sc2c(c1C)c(=O)n(Cc1ccccc1)c(=O)n2Cc1cc(C)ccc1C | inconclusive: 0.0251 µM [cytotoxic, full curve, poor fit] | 
56 | Cc1ccnc(NC(=O)Nc2cccc(F)c2)c1 | inconclusive: 15.8 µM [cytotoxic, single point] | 
57 | CCOc1ccc(-c2nnc(-c3ccccc3)o2)cc1 | inconclusive: 15.8 µM [cytotoxic, single point] | 
58 | Cc1ccc(N2C(=O)C(CC(=O)Nc3cccc(F)c3)N(CCc3ccccc3F)C2=O)cc1 (configuration not stated) | inconclusive: 12.6 µM [cytotoxic, single point] | 
59 | Cc1ccccc1/C=C1\CCCc2ccccc2C1=O | inconclusive: 7.08 µM [cytotoxic, partial curve, poor fit] | 
60 | N=c1c2c(-c3ccccc3)c(-c3ccccc3)n(Cc3ccco3)c2ncn1CCN1CCOCC1 | inconclusive: 25.1 µM [cytotoxic, single point] | 
61 | Cc1ccc(CNC(=O)c2ccc(Cn3c(SCc4ccc(F)cc4)nc4cccnc43)cc2)o1 | inconclusive: 12.6 µM [cytotoxic, partial curve] | 
62 | c1ccc2c(Nc3ccncc3)nc(-c3ccc4c(c3)OCO4)nc2c1 | inconclusive: 31.6 µM [cytotoxic, single point] | 
63 | Cc1ccc(-n2c(N)c(C(=O)Nc3c(C)n(C)n(-c4ccccc4)c3=O)c3nc4ccccc4nc32)cc1C | inconclusive: 0.0224 µM [cytotoxic, full curve, poor fit] | 
64 | Cc1nc2ccc(NC(=O)Nc3ccnc4cccnc34)cc2o1 | inconclusive: 31.6 µM [cytotoxic, single point] | 
65 | Cc1ccc(NC(=O)c2oc3ccccc3c2NC(=O)C23CC4CC(CC(C4)C2)C3)cc1 |  | inactive: 2.31%
66 | C=C(C)COc1ccc(-c2n[nH]c(C)c2-c2ccccc2)c(O)c1 | inconclusive: 31.6 µM [cytotoxic, single point] | 
67 | CCOc1ccc(C(=O)Nc2cc(C)on2)cc1 | active: 2.51 µM | 
68 | CCOc1cc(/C=N/NC(=O)c2cc(-c3cccc(OC)c3)n[nH]2)ccc1O |  | inactive: 2.92%
69 | CC(=O)Nc1c(C)nn(-c2ccccc2)c1N1CCC(C(=O)NCc2ccc(F)cc2)CC1 |  | inactive: -1.11%
70 | C=C(C)Cn1c(SCC(=O)c2ccccc2)nc2sc3c(c2c1=O)CCCC3 | inconclusive: 1.58 µM [cytotoxic, partial curve] | 
71 | CCS(=O)(=O)c1ncc(Cl)c(C(=O)NCc2ccccc2)n1 | inconclusive: 25.1 µM [cytotoxic, single point] | 
72 | O=C(Nc1ccc2c(c1)nc1n2CCOC1)C1CCCCC1 | inconclusive: 25.1 µM [cytotoxic, single point] | 
